From publication PMC11172389
No constants are given. Whether binding was seen depends on the method and setting. Binding seen in cells or lysates may run through a third protein. Some results given as binding are weak or reduced against the parent protein; the word gives no strength.

Chains of the proteins cited; added tags and fusions are not shown.
UniProt P58391: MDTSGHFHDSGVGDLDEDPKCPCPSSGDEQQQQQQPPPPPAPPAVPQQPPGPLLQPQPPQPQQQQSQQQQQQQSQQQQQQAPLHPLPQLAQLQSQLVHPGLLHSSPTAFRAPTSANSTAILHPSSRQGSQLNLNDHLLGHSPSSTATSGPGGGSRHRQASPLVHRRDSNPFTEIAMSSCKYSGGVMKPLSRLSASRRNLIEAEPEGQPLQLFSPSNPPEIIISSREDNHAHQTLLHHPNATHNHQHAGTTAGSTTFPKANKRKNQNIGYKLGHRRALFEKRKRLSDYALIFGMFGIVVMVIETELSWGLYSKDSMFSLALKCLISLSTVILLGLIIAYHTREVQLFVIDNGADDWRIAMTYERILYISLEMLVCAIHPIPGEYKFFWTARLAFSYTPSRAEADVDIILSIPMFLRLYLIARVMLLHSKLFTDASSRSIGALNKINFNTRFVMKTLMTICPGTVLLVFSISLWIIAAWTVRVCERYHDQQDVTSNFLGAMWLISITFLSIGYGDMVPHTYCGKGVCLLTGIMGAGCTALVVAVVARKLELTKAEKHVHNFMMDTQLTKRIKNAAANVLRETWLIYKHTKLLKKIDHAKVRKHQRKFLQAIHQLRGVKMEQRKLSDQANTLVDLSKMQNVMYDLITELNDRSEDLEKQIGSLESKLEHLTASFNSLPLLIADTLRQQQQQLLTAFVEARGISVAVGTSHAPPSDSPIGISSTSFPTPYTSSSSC
UniProt Q9Z0V1: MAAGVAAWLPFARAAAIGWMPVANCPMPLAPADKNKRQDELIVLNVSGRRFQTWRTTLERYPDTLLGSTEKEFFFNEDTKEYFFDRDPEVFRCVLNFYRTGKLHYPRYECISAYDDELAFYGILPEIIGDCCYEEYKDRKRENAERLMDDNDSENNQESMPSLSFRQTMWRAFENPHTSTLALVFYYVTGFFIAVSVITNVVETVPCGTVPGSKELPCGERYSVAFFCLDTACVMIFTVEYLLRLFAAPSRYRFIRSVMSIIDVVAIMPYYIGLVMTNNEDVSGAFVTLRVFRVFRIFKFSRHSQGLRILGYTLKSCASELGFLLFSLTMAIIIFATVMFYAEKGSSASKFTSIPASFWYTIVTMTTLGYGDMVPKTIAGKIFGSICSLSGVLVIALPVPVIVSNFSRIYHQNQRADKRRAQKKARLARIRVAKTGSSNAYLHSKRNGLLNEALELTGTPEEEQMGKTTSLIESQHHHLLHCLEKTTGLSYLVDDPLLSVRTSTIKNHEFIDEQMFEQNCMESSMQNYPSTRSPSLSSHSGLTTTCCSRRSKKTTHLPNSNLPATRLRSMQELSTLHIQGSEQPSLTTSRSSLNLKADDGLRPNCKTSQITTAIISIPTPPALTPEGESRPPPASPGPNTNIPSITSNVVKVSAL
UniProt Q99246: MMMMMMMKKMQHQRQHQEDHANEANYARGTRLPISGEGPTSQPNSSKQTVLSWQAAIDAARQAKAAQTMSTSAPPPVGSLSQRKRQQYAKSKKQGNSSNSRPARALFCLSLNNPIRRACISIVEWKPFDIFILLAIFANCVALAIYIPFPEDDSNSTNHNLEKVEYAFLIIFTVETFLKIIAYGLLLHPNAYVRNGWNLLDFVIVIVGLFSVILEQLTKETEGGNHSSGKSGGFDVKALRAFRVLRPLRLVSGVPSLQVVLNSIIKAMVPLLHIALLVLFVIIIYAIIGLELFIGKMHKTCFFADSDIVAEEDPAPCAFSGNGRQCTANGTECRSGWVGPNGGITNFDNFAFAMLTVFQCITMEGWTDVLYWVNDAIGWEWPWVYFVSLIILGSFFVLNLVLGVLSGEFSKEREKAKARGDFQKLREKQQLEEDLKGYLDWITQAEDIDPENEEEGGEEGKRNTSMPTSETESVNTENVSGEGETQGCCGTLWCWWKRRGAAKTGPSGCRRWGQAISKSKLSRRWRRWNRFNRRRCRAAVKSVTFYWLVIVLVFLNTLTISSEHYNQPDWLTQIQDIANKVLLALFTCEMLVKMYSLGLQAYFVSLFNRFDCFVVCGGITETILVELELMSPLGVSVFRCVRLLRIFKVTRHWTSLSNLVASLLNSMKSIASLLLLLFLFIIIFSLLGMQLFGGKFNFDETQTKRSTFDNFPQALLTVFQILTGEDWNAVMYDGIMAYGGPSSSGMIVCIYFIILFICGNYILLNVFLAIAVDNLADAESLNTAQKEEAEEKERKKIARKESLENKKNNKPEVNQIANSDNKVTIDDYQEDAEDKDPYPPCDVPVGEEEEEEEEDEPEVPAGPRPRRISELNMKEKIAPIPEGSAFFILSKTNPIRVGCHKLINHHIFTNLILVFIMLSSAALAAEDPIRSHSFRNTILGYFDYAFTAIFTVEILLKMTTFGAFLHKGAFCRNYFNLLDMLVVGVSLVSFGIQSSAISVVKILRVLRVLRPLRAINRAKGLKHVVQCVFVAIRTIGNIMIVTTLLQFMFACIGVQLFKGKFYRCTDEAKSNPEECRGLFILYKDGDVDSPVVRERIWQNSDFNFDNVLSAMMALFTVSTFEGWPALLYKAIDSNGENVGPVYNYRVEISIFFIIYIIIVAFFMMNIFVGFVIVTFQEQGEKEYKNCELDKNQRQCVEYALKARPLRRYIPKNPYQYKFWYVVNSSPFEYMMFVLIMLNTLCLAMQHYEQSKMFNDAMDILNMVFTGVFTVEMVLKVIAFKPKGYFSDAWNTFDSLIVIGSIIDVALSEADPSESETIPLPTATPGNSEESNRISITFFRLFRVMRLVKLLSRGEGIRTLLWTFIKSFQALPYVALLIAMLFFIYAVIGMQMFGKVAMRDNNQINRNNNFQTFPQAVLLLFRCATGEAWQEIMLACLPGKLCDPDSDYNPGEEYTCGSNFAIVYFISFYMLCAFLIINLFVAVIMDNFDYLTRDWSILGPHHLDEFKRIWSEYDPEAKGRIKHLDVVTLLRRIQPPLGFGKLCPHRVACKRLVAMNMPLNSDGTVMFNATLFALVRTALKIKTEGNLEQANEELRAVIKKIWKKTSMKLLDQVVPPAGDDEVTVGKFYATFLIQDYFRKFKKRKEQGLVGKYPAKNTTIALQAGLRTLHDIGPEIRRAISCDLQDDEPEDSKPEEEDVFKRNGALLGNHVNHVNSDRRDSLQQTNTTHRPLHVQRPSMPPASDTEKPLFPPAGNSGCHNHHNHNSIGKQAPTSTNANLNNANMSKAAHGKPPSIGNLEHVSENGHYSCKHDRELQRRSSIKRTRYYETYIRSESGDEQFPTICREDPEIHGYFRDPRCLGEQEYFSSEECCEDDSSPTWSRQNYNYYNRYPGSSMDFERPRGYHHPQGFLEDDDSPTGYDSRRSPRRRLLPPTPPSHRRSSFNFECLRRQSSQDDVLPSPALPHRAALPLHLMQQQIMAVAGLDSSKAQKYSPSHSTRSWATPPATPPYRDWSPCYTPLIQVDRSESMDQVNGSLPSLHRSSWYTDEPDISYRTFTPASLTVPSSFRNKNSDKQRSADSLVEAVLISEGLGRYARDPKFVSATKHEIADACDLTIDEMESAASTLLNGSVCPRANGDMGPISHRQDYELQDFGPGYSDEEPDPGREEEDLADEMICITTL

Key:
[1] = biological target: SK3 calcium-activated small-conductance potassium channel (mouse (endogenous in midbrain)) (UniProt P58391); assay: proximity ligation; in situ Duolink PLA with two primary antibodies on fixed 40 µm mouse midbrain slices; puncta counted on tyrosine-hydroxylase-labelled SNc DA neurons; controls: KO mice or an antibody to another protein
[2] = biological target: Kv4.3 A-type potassium channel (mouse (endogenous in midbrain)) (UniProt Q9Z0V1); assay: as above
[3] = biological target: Cav1.3 L-type voltage-dependent Ca2+ channel α1-subunit (mouse (endogenous in midbrain)) (UniProt Q99246); assay: as above
[4] = biological target: Kv4.3 A-type potassium channel (mouse (endogenous in midbrain)) (UniProt Q9Z0V1); assay: co-IP; mouse midbrain plasma-membrane-enriched fraction solubilised in ComplexioLyte CL47a (IP1) or CL48 (IP2), also in the other ComplexioLyte buffers of varying stringencies; antibody overnight at 4 °C, captured on protein A-Sepharose or protein A/G; immunoblot

binding [1]: binds
binding [2]: no binding
binding [3]: binds
binding [4]: no binding
B1: hyperpolarization-activated cyclic nucleotide-gated channel HCN2 (protein, UniProt O88703 1-863)
chain: MDARGGGGRPGDSPGTTPAPGPPPPPPPPAPPQPQPPPAPPPNPTTPSHPESADEPGPRARLCSRDSACTPGAAKGGANGECGRGEPQCSPEGPARGPKVSFSCRGAASGPSAAEEAGSEEAGPAGEPRGSQASFLQRQFGALLQPGVNKFSLRMFGSQKAVEREQERVKSAGAWIIHPYSDFRFYWDFTMLLFMVGNLIIIPVGITFFKDETTAPWIVFNVVSDTFFLMDLVLNFRTGIVIEDNTEIILDPEKIKKKYLRTWFVVDFVSSIPVDYIFLIVEKGIDSEVYKTARALRIVRFTKILSLLRLLRLSRLIRYIHQWEEIFHMTYDLASAVMRICNLISMMLLLCHWDGCLQFLVPMLQDFPSDCWVSINNMVNHSWSELYSFALFKAMSHMLCIGYGRQAPESMTDIWLTMLSMIVGATCYAMFIGHATALIQSLDSSRRQYQEKYKQVEQYMSFHKLPADFRQKIHDYYEHRYQGKMFDEDSILGELNGPLREEIVNFNCRKLVASMPLFANADPNFVTAMLTKLKFEVFQPGDYIIREGTIGKKMYFIQHGVVSVLTKGNKEMKLSDGSYFGEICLLTRGRRTASVRADTYCRLYSLSVDNFNEVLEEYPMMRRAFETVAIDRLDRIGKKNSILLHKVQHDLSSGVFNNQENAIIQEIVKYDREMVQQAELGQRVGLFPPPPPPQVTSAIATLQQAVAMSFCPQVARPLVGPLALGSPRLVRRAPPGPLPPAASPGPPAASPPAAPSSPRAPRTSPYGVPGSPATRVGPALPARRLSRASRPLSASQPSLPHGVPAPSPAASARPASSSTPRLGPAPTARTAAPSPDRRDSASPGAASGLDPLDSARSRLSSNL
